Experimental data as given in the supplement of paper PMC4604168 (melanoma cell lines).
Some of the results follow. Many values rest on one well or one pass, so single values are uncertain.

How the values were obtained:
Experiment in all cases: cell count relative to DMSO control; melanoma cells; higher = more viable cells
Details in all cases: library dose: low library concentration; 72 h
[1] = tested on: WM115
[2] = tested on: WM1716
[3] = tested on: WM1745
[4] = tested on: WM3526
[5] = tested on: WM3619
[6] = tested on: WM451Lu
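Further: cell number obtained by counting DAPI-stained nuclei in high-throughput microscope images with image analysis software, screen run in 1,536-well plates.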

| Compound | cell count [1] [%] | cell count [2] [%] | cell count [3] [%] | cell count [4] [%] | cell count [5] [%] | cell count [6] [%] |
| --- | --- | --- | --- | --- | --- | --- |
| NC(=O)c1ccc(N(C(N)=O)c2c(F)cccc2F)nc1-c1ccc(F)cc1F + O=C(Nc1cccc(Cl)c1)Nc1ncc(CCNc2ncnc3ccsc23)s1 [SNS314] (first compound 0.4 µM, partner dose 0.0008 µM) | 91.1 | 113 | 90.5 | 72 | 106 | 104 |
| Cc1ccc(NC(=O)c2cccc(N(C)C)c2)cc1NC(=O)c1ccc(O)cc1 + COc1cc2ncnc(Nc3ccc(Oc4ccccc4)cc3)c2cc1OC [SrcI1] (first compound 2 µM, partner dose 2 µM) | 103 | 115 | 86.6 | 87.6 | 110 | 104 |
| NC(=O)c1ccc(N(C(N)=O)c2c(F)cccc2F)nc1-c1ccc(F)cc1F + CN(NC(=O)CC(=O)NN(C)C(=S)c1ccccc1)C(=S)c1ccccc1 [STA4783] (first compound 0.4 µM, partner dose 0.006 µM) | 89.5 | 95.4 | 36.1 | 95.5 | 69.8 | 102 |
| COc1cc2c(Oc3ccc4[nH]c(C)cc4c3F)ncnc2cc1OCCCN1CCCC1 [cediranib] + COc1ccc(-c2ccc3c(N4CCOCC4)nc(N4C[C@@H](C)O[C@@H](C)C4)nc3n2)cc1CO [KU0063794] (first compound 0.4 µM, partner dose 0.02 µM) | 100 | 102 | 113 | 114 | 98.7 | 107 |
| NC(=O)c1ccc(N(C(N)=O)c2c(F)cccc2F)nc1-c1ccc(F)cc1F + NC(=O)Nc1cc(-c2cccc(F)c2)sc1C(=O)N[C@H]1CCCNC1 [AZD7762] (first compound 0.4 µM, partner dose 0.02 µM) | 88 | 94.1 | 76.2 | 74 | 55.4 | 62.9 |
| NC(=O)c1ccc(N(C(N)=O)c2c(F)cccc2F)nc1-c1ccc(F)cc1F + C#Cc1cccc(Nc2ncnc3cc(OCCOC)c(OCCOC)cc23)c1 [erlotinib] (first compound 0.4 µM, partner dose 0.8 µM) | 88.5 | 84.3 | 68.8 | 96.3 | 109 | 68.8 |
| CCCCCCCCc1ccc(CCC(N)(CO)CO)cc1 [fingolimod] + CO[C@@H]1[C@H](N(C)C(=O)c2ccccc2)C[C@H]2O[C@]1(C)n1c3ccccc3c3c4c(c5c6ccccc6n2c5c31)C(=O)NC4 [Midostaurin] (first compound 2 µM, partner dose 0.08 µM) | 80.1 | 66 | 69 | 81.8 | 87.3 | 74.5 |
| NC(=O)c1ccc(N(C(N)=O)c2c(F)cccc2F)nc1-c1ccc(F)cc1F + CN1CCN(c2ccc3nc(-c4c(N)c5c(F)cccc5[nH]c4=O)[nH]c3c2)CC1 [Dovitinib] (first compound 0.4 µM, partner dose 0.1 µM) | 113 | 119 | 99.8 | 74 | 110 | 106 |
| CCCCCCCCc1ccc(CCC(N)(CO)CO)cc1 [fingolimod] + CO[C@H]1C[C@@H]2CC[C@@H](C)[C@@](O)(O2)C(=O)C(=O)N2CCCC[C@H]2C(=O)O[C@H]([C@H](C)C[C@@H]2CC[C@@H](OCCO)[C@H](OC)C2)CC(=O)[C@H](C)/C=C(\C)[C@@H](O)[C@@H](OC)C(=O)[C@H](C)C[C@H](C)/C=C/C=C/C=C/1C [everolimus] (first compound 2 µM, partner dose 0.02 µM) | 74.8 | 60.6 | 75.7 | 60 | 65.9 | 88.2 |
| CCc1ccc(CCOc2ccc(CC3SC(=O)NC3=O)cc2)nc1 (configuration not stated) [pioglitazone] + CC(C)CCN1c2nc(Nc3cc(F)c(O)c(F)c3)ncc2N(C)C(=O)C1C [BID1870] (first compound 2 µM, partner dose 0.2 µM) | 93 | 92.2 | 88.9 | 69.2 | 101 | 98.2 |
| CCCCCCCCc1ccc(CCC(N)(CO)CO)cc1 [fingolimod] + CC(=O)O[C@@]12CO[C@@H]1C[C@H](O)[C@@]1(C)C(=O)[C@H](O)C3=C(C)[C@@H](OC(=O)[C@H](O)[C@@H](NC(=O)OC(C)(C)C)c4ccccc4)C[C@@](O)([C@@H](OC(=O)c4ccccc4)[C@H]21)C3(C)C [Docetaxel] (first compound 2 µM, partner dose 0.0001 µM) | 75.4 | 55.2 | 63.6 | 58 | 85.8 | 75.2 |
| NC(=O)c1ccc(N(C(N)=O)c2c(F)cccc2F)nc1-c1ccc(F)cc1F + Nc1ccn([C@@H]2O[C@H](CO)[C@@H](O)C2(F)F)c(=O)n1 [gemcitabine] (first compound 0.4 µM, partner dose 0.0004 µM) | 104 | 102 | 60.4 | 87.8 | 71.4 | 111 |
| CN(NC(=O)CC(=O)NN(C)C(=S)c1ccccc1)C(=S)c1ccccc1 + Oc1cc(-c2nc(-c3ccccc3)[nH]c2-c2ccncc2)ccc1Cl [L779450] (first compound 0.006 µM, partner dose 0.2 µM) | 78.5 | 83.8 | 37.6 | 84.3 | 70.9 | 117 |
| NC(=O)c1ccc(N(C(N)=O)c2c(F)cccc2F)nc1-c1ccc(F)cc1F + C=C(c1ccc(C(=O)O)cc1)c1cc2c(cc1C)C(C)(C)CCC2(C)C [Bexarotene] (first compound 0.4 µM, partner dose 2 µM) | 94 | 98.7 | 94.6 | 81.2 | 84.7 | 90 |
| CC(C)(C)c1cnc(CSc2cnc(NC(=O)C3CCNCC3)s2)o1 + COc1ccc2c(c1)CCC1C2CCC2(C)C(NCCCCCCN3C(=O)C=CC3=O)CCC12 [U73122] (first compound 0.01 µM, partner dose 0.4 µM) | 114 | 88.4 | 87.3 | 97.4 | 109 | 118 |
| CCc1ccc(CCOc2ccc(CC3SC(=O)NC3=O)cc2)nc1 (configuration not stated) [pioglitazone] + c1cc(-c2cnn3cc(-c4ccc(OCCN5CCCCC5)cc4)cnc23)ccn1 [Dorsomorphin] (first compound 2 µM, partner dose 0.4 µM) | 99.9 | 88.6 | 95.3 | 86.3 | 128 | 105 |
| NC(=O)c1ccc(N(C(N)=O)c2c(F)cccc2F)nc1-c1ccc(F)cc1F + CC1(C)NC(=O)N(c2ccc([N+](=O)[O-])c(C(F)(F)F)c2)C1=O [nilutamide] (first compound 0.4 µM, partner dose 1 µM) | 120 | 106 | 102 | 70.7 | 111 | 94.1 |
